What all share (assay): glycan array binding signal (z-score within array); higher = stronger binding
Details in all cases: glycan notation: IUPAC condensed, linker removed

Test [1] deals with Neu5Ac(a2-3)Gal(b1-4)GlcNAc(b1-3)[Neu5Ac(a2-3)Gal(b1-4)GlcNAc(b1-6)]GalNAc. An outline of the steps:
(§1)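 From the Consortium for Functional Glycomics database, 3228 arrays were curated, keeping only those whose protein sequence was available. Binding is given as a within-array Z-score averaged across arrays sharing a protein sequence and across linkers. Negative Z-scores can be read as non-binding.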

Test [2] addresses Neu5Ac(a2-3)Gal(b1-4)GlcNAc(b1-6)GalNAc. The gist of the method:
as §1

Test [3] concerns the target Neu5Ac(a2-3)Gal(b1-4)GlcNAc(b1-6)[Gal(b1-3)]GalNAc. The gist of the method: as §1
For test [4], the target named is Neu5Ac(a2-3)Gal(b1-4)GlcNAc(b1-6)[Neu5Ac(a2-3)Gal(b1-3)]GalNAc. An outline of the steps:
as §1

The target of test [5] is Neu5Ac(a2-3)Gal(b1-4)GlcNAc6S. The gist of the method:
as §1

Test [6] concerns the target Neu5Ac(a2-3)Gal(b1-4)[Fuc(a1-3)]GlcNAc. The gist of the method: as §1
Test [7] concerns the target Neu5Ac(a2-3)Gal(b1-4)[Fuc(a1-3)]GlcNAc(b1-2)Man. An outline of the steps:
as §1

Test [8] concerns the target Neu5Ac(a2-3)Gal(b1-4)[Fuc(a1-3)]GlcNAc(b1-3)Gal. The gist of the method: as §1
Test [9] deals with Neu5Ac(a2-3)Gal(b1-4)[Fuc(a1-3)]GlcNAc(b1-3)Gal(b1-4)GlcNAc. The gist of the method:
as §1

The target of test [10] is Neu5Ac(a2-3)Gal(b1-4)[Fuc(a1-3)]GlcNAc(b1-3)Gal(b1-4)[Fuc(a1-3)]GlcNAc(b1-3)Gal(b1-4)[Fuc(a1-3)]GlcNAc. The gist of the method:
as §1

The target in test [11] is Neu5Ac(a2-3)Gal(b1-4)[Fuc(a1-3)]GlcNAc(b1-3)GalNAc. The gist of the method: as §1
Test [12] concerns the target Neu5Ac(a2-3)Gal(b1-4)[Fuc(a1-3)]GlcNAc(b1-6)[Gal(b1-3)]GalNAc. The gist of the method: as §1
For test [13], the target named is Neu5Ac(a2-3)Gal(b1-4)[Fuc(a1-3)]GlcNAc(b1-6)[Neu5Ac(a2-3)Gal(b1-3)]GalNAc. An outline of the steps:
as §1

Test [14] concerns the target Neu5Ac(a2-3)Gal(b1-4)[Fuc(a1-3)]GlcNAc6S. An outline of the steps:
as §1

Test [15] deals with Neu5Ac(a2-3)Gal6S(b1-4)GlcNAc. An outline of the steps: as §1
Test [16] addresses Neu5Ac(a2-3)Gal6S(b1-4)[Fuc(a1-3)]GlcNAc. The gist of the method:
as §1

In test [17] the target is Neu5Ac(a2-3)GalNAc. An outline of the steps: as §1
The target of test [18] is Neu5Ac(a2-3)GalNAc(b1-4)GlcNAc. The gist of the method:
as §1

The target in test [19] is Neu5Ac(a2-3)[GalNAc(b1-4)]Gal(b1-4)Glc. The gist of the method: as §1
Test [20] addresses Neu5Ac(a2-3)[GalNAc(b1-4)]Gal(b1-4)GlcNAc. The gist of the method: as §1
In test [21] the target is Neu5Ac(a2-3)[GalNAc(b1-4)]Gal(b1-4)GlcNAc(b1-3)GalNAc. The gist of the method: as §1
In test [22] the target is Neu5Ac(a2-3)[Neu5Ac(a2-6)]GalNAc. An outline of the steps:
as §1

The list shows a part of the results.

B1: InvD YPIII (Yersinia pseudotuberculosis), B1JSC0 (protein)
chain: MIKYFSFFKKPEPIVGILPNRQSHHILPTHIRRVAWGTLLLQLFIPLSVSFSPAIAAMKASKADTMVSYSSTEPYVLGSGETVAMVAKKYGITVDELKKINIYRTFSRPFTALTTGDEIDIPRKASPFSVDNNKDNRLSVENTLAGHAVAGATALSNGDVAKSGERMVRSAASNEFNNSAQQWLSQFGTARVQLNINDDFHLDGSAADVLIPLYDNEKSILFTQLGARNKDSRNTVNMGAGVRTFQGNWMYGANTFFDNDLTGKNRRIGVGAEAWTDYLKLSANNYFGITDWHQSRDFIDYNERPANGYDLRAEAYLPSYPQLGGKAMYEKYRGDDVALFGKDNRQKNPHAITAGVNYTPIPLVTIGAEHRAGKGGQNDSNINFQLNYRLGETWQSHIDPSAVAASRTLAGSRYDLVERNNHIVLDYQKQNLVRLSLPDSLAGDPFSQLSVTAQVTATHGLERIDWQSAELMAAGGVLKQTSKNGLEITLPEYQMNRTGGNSYILNAIAYDTQGNASSQASMLITVNAQKINIANSTLVAVPINIEANNSDTSVVTLTLKDDNNIPVTGQDVTFLSPLGTLSAMTDSGNGVYTATLTAGTVSGTTAVSSNINGSALDMTPATVTLNGNSGELSITHSMLVAAPVNIEANGSDTSVVTLTLRDSNNNPVTGQTVTFAGTLGTLGAVTEGSSGVYTATLTAGIMVGTSSITASVNSTALGVTPATVTLNGDSGNLSTTNSTLVAAPVNIEANSSDTSVVTLTLRDNNNNPVTGQTVVFTSTLGTLGNVTEQASGVYTATLTAGTVSGVASLSVSVGGNALGVTPATVTLNGDSGNLSTTNSTLVAAPVNIEANSSDTSVVTLTLRDNNNNPVTGQTVNFAGTLGTLGTVSEGSSGVYTTTLTAGTVAGVASLSVNVGGNALGVTPATVTLNGNSGNLSATNSTLVAAPVNIEANSSDTSVVTLTLRDNNNNPVTGQTVAFTSTLGTLGNVTEQASGVYTATLTAGTVSGVASLSVSVNSNALGVTPATVTLNGDSGNLSTTNSTLVAAPVNIEANSSDTSVVTLTLRDNNNNPVTGQTVAFTSTLGTLGNVTEQASGLYTATLTAGTVSGVASLSVNVGGNALGVTPATVTLNGDSGNLSATNSTLVAAPVNIEANSSDTSVVTLTLRDNNNNPVTGQTVAFTSTLGTLGNVTEQASGLYTATLTAGTVSGVASLSVNVGGTALGVTPATVTLNGDSGNLSTTNSTLVAAPVNIEANSSDTSVVTLTLRDNNNNPVTGQTVAFTSTLGTLGNVTEQASGLYTATLTAGTVSGVASLSVSVNSTALGVTPATVTLNGDSGNLSTTNSTLVAAPVNIEANSSDTSVVTLTLRDNNNNPVTGQTVAFTSTLGTLGNVTEQASGVYTATLTAGTVAGVASLSVNVGGNALGVTPATVTLNGDSGNLSTTNSTLVAAPVNIEANSSDTSVVTLTLRDNNNNPVTGQTVAFTSTLGTLGNVTEQASGVYTATLTAGTVSGVASLSVSVGSSALGVTPATVTLNGDSGNLSTTNSTLVAAPVNIEANNSDTSVVTLTLRDNNNNPVTGQTVAFTSTLGTLGNVTEQASGVYTATLTAGTVSGVASLSVSVNSNALGVTPATVTLNGDSGNLSTTNSTLVAAPVNIEANSSDTSVVTLTLRDNNNNPVTGQTVVFTSTLGTLGNVTEQASGLYTATLTAGTVSGVASLSVSVGGNALGVTGNITLAPGALDAARSILAVNKPSINADDRIGSTITFTAQDAQGNAITGLDIAFMTDLENSQIMTLVDHNDGTYTANINGTQTGIANIAVQSSGATIAGLAATMVTITPGAWNTTQATPVMTVALPITTCQSSSGVYKRYYIGIVTHELYDNYGNEISGILTYNLGAGRYTTVTSQNSSVSGSNGLTRRSNSPVSHFILTSDAYTSQAACYAERIANVNVTITVTAITDDFKTSAVNKVFILGTGSN
As for B1, the “glycan array binding signal (z-score)” value in [1] is 0.009; in [2], 0.218; in [3] it was 0.162; in test [4], -0.125; in [5], -0.166; in test [6] it was -0.267. Besides, the “glycan array binding signal (z-score)” value in test [7] is -0.036; in test [8] it was -0.145; in test [9], -0.037; in test [10], -0.211; in [11], -0.131; in test [12], 0.032. The “glycan array binding signal (z-score)” value in test [13] was -0.245; in [14] it was -0.17; in test [15] it was -0.256; in test [16], -0.136; in [17], 0.092; in test [18], -0.005. Further, the “glycan array binding signal (z-score)” value in test [19] is -0.133; in test [20] it was -0.286; in [21], 0.578; in test [22], -0.196.
